Data as given in patent US7732162.

Tests used:
[1] = biological target: full length recombinant human MCP-1(1-76) starting with an N-terminal glutamine
[2] = biological target: MCP-1(1-76) bearing an N-terminal pyroglutamyl residue

B1: MMP-1 from human rheumatoid synovial fibroblasts (protein)
chain: FVLTEGNPRWEQTHLTYRIENYTPDLPRADVDHAIEKAFQLWSNVTPLTFTKVSEGQADIMISFVRGDHRDNSPFDGPGGNLAHAFQPGPGIGGDAHFDEDERWTNNFREYNLHRVAAHELGHSLGLSHSTDIGALMYPSYTFSGDVQLAQDDIDGIQAIYGRSQNPVQPIGPQTPKACDSKLTFDAITTIRGEVMFFKDRFYMRTNPFYPEVELNFISVFWPQLPNGLEAAYEFADRDEVRFFKGNKYWAVQGQNVLHGYPKDIYSSFGFPRTVKHIDAALSEENTGKTYFFVANKYWRYDEYKRSMDPGYPKMIAHDFPGIGHKVDAVFMKDGFFYFFHGTRQYKFDPKTKRILTLQKANSWFNCRKN
[1]
  N-terminal cleavage, MALDI-TOF: MMP-1 inactivates mature MCP-1 by cleaving the 4 N-terminal amino acids (pE/Q-P-D-A) independent from the presence of a N-terminal pGlu residue
[2]
  N-terminal cleavage, MALDI-TOF: MMP-1 inactivates mature MCP-1 by cleaving the 4 N-terminal amino acids (pE/Q-P-D-A) independent from the presence of a N-terminal pGlu residue
